Source: publication PMC4336329 (PLoS ONE, 2015)
In all, about 310,000 compounds went through this assay and about 14,000 (4.5%) showed an effect of 50% or more. Effects have a minus sign here. Some of the results follow.

Biological target: human ether-à-go-go-related gene (hERG) potassium channel (human, UniProt Q12809)
Assay: primary screen, population patch clamp on CHO cells stably expressing hERG
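Note: peak tail current of the secondary pulse compared with the same well before compound.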

Chain of human ether-à-go-go-related gene (hERG) potassium channel (Q12809 whole entry, looked up): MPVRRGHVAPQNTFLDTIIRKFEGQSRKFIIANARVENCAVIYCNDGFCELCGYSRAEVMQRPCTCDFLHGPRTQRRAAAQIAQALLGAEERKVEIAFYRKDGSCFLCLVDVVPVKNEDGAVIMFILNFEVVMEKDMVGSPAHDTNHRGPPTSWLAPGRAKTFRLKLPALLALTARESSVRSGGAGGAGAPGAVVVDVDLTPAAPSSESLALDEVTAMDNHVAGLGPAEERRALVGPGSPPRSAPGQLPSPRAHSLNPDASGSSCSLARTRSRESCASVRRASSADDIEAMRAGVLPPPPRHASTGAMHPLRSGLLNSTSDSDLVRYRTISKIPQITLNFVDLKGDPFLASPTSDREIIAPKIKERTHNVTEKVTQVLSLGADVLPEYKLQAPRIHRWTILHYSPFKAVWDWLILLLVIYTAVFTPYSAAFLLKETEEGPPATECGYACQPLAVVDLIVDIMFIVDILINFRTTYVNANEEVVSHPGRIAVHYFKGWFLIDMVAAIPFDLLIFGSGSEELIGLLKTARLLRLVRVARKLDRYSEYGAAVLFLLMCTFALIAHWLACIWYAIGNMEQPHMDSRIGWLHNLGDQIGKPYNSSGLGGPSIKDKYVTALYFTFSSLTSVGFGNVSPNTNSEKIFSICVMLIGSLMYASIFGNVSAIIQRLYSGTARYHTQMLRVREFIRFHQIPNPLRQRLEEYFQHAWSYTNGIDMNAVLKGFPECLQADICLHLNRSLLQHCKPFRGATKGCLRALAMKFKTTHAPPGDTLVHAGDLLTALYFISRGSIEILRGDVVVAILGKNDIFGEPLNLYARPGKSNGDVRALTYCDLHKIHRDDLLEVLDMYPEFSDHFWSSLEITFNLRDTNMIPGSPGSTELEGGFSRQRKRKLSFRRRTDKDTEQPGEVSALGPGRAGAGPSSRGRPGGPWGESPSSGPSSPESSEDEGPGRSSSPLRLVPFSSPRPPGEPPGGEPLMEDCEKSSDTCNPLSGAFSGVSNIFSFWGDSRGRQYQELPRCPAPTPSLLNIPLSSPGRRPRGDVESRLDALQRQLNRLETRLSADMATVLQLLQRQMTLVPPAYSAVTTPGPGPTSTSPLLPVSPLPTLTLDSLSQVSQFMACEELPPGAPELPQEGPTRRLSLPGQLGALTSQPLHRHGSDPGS

SMILES	hERG current change (%, negative = inhibition) at 10uM
Cc1onc(-c2ccccc2Cl)c1C(=O)Nc1nnc(-c2ccc(Cl)cc2Cl)s1	17%
COc1ccc(CN2C(=O)c3cccnc3C2Nc2ccc(C)cc2)cc1 (stereo not drawn)	-18.6%
CCC(C)N(C(=O)COc1ccc(NC(C)=O)cc1)C1CCS(=O)(=O)C1 (stereo not drawn)	56.7%
CCNCC1(c2ccc(OC)c(OC)c2)CCCC1.Cl	-5.6%
CCCCOc1ccc(NC2=NC3(CCCCC3)N=C(N)N2)cc1	6.7%
C/C(CC(=O)NC(C)(C)C)=N\NC(N)=S	20%
Cn1c(Cn2c(=O)sc3ccccc32)nnc1SCC(=O)N1CCCC1	-9.47%
COCC(=O)N(C)c1nnc(-c2ccc([N+](=O)[O-])cc2)s1	6.65%
Cc1cccc(/C=N/NC(=O)c2ccc(NC(=O)c3ccc(Cl)cc3)cc2)n1	1.04%
COc1ccc(CNC(=O)c2sccc2C)cc1	20.2%
Cc1cccc(NC(=S)NCCC(C)C)c1	0.688%
CCN(CC)C(=N)N1c2ccccc2CCC1C.Cl (stereo not drawn)	-0.402%
CCOCCCNC(=O)c1c[nH]c2cc(OC)ccc2c1=O	9.13%
COc1ccccc1Nc1cc(C(=O)NCc2cccnc2)c2ccccc2n1	-12.3%
COC(=O)c1ccc(/C=N/NC(=O)C(=O)N2CCCCCC2)cc1	6.12%
O=C(NCc1ccccc1)c1cc2ccccc2o1	-4.68%
COc1ccc(OCc2cc(C(=O)N3CCCN(C(C)=O)CC3)no2)c(Cl)c1	-14.8%
CCOC(=O)C1(Cc2cccc(Cl)c2)CCCN(C(=O)c2ccoc2C)C1 (stereo not drawn)	-7.06%
CCOC(=O)CS(=O)(=O)c1ccc(O)cc1	47%

SMILES	hERG current change (%, negative = inhibition) at 10uM
O=C(NCc1ccc2c(c1)OCO2)c1c(F)c(F)c(F)c(F)c1F	8.95%
Cc1nc(C(=O)NC2CCOCC2)sc1C1(C)CC(c2ccccc2)=NO1 (stereo not drawn)	-19.8%
Cc1ccc(Cc2nnc(SCC(=O)Nc3ccccc3C)[nH]c2=O)cc1	-12.9%
O=C(Nc1nc(-c2cccs2)cs1)c1ccc([N+](=O)[O-])o1	0.579%
O=C(NC1CCSc2ccccc21)c1ccc(F)cc1 (stereo not drawn)	1.96%
NS(=O)(=O)c1cccc(NC(=S)NC(=O)c2cccc([N+](=O)[O-])c2)c1	-13.2%
CC(=O)N1CCCc2cc(S(=O)(=O)Nc3ccc4c(c3)OCO4)ccc21	-11.2%
CCOC(=O)CSc1cn2c(n1)CCC2	-0.729%
CCCS(=O)(=O)NCCc1cc2c(C)ccc(C)c2[nH]c1=O	-6.65%
Br.Cc1ccc(Nc2nc(-c3c(C)nc4ccccn34)cs2)cc1	-62.7%
C=CCN1C(=O)c2ccccc2Sc2ccc(C(=O)N3CCC4(CC3)OCCO4)cc21	-4.43%
O=C(Cc1ccc(-n2c(=O)c3sccc3n(Cc3ccc(F)cc3)c2=O)cc1)NCc1ccco1	-11.2%
O=c1c2ccccc2nc(-c2ccccc2Cl)n1O	11.9%
CCOC(=O)C1=C(Cc2ccc(Cl)cc2)C(=O)c2ccccc2C1=O	-8.05%
CC1CCCCN1C(=O)CN(C)S(=O)(=O)c1cccc2nsnc12 (stereo not drawn)	12.8%
CCOc1ccc(NC(=O)C/C(C)=N/NC(=O)COc2ccc(Br)cc2C)cc1	-16.7%
COC(=O)c1ccc(Cl)c(NC(=O)NC2CCCCC2)c1	7.26%
O=C(CC(c1ccccc1)c1cc(Br)ccc1O)NCCN1CCOCC1 (stereo not drawn)	-34.7%
O=C(Nc1ccc(Br)cc1)c1cc([N+](=O)[O-])cc([N+](=O)[O-])c1	9.98%

SMILES	hERG current change (%, negative = inhibition) at 10uM
Cc1occc1C(=O)N/N=C/C=C/c1ccccc1[N+](=O)[O-]	-14.3%
COCC(C)n1c(C)cc(C(=O)COC(=O)c2c(C)nn(-c3ccccc3)c2C)c1C (stereo not drawn)	-35.2%
CCCCN(C)Cc1c(C)[nH]c2c(ccc3ccccc32)c1=O	-73.6%
O=C(O)c1cc(-c2ccc(Cl)cc2)n[nH]1	-6.64%
O=C(c1cccc(S(=O)(=O)N2CCN(c3ccccc3)CC2)c1)N1CC=C(c2ccccc2)CC1	14.3%
CCOC(=O)N1CCC(Nc2c(Nc3ccc(C)c(C)c3)c(=O)c2=O)CC1	-5.22%
N#CC(C(=O)Nc1ccc(Cl)c(Cl)c1)=C1Nc2ccccc2N1	-9.86%
CCOc1ccccc1NS(=O)(=O)c1csc(C(N)=O)c1	11.7%
COc1cc2c(cc1OC)-c1c3c(cc4c1[C@@H](C2)N(C)CC4)OCO3	-31.7%
Cc1cccc(NC(=O)CSCC(=O)Nc2ccc(S(=O)(=O)N3CCCC3)cc2)c1	-2.22%
CC1(C)Cc2ccccc2C(CSc2ccccc2C(=O)O)=N1	19.2%
O=C(Nc1oc2ccc(Cl)cc2c(=O)c1-c1ccc(F)cc1)c1ccco1	0.0714%
CCOC(=O)COc1cccc2c(=O)n(CC(=O)NCCc3ccccc3)ccc12	7.91%
NC(=O)C(Cc1ccccc1)NS(=O)(=O)c1ccc(N2CCCC2=O)cc1 (stereo not drawn)	-5.05%
Cc1cc(C(=O)N/N=C/c2ccc([N+](=O)[O-])cc2)c2ccccc2n1	17.2%
COc1ccc(OC)c(-c2c(C#N)c(N)nc3c2c(=O)nc2sccn23)c1	4.87%
Cc1ccc(S(=O)(=O)NCC2CCC(C(=O)NC3CCCCC3)CC2)cc1 (stereo not drawn)	4.25%
CCCCn1c(N)c(N(CCC(C)C)C(=O)C2CCCN(C(=O)c3ccc(Cl)cc3)C2)c(=O)[nH]c1=O (stereo not drawn)	2.1%
Cc1cc(N(CC(=O)NC2CC2)S(C)(=O)=O)ccc1Br	7.52%
